About 150 (0.041%) of roughly 370,000 compounds were called active. This list was built around the results that the source calls inconclusive (neither active nor inactive); the mix of calls is not that of the screen. Calls come from the whole dose curve; as a rule, active = well fitted inhibition curve with a large enough effect; inconclusive = small, poorly fitted or top-dose-only effect; inactive = flat fitted curve, though single readings scatter. No potency is given beside an inconclusive call; the fits are too rough.
Biological target: Beta-lactamase (Escherichia coli (strain K12)) (UniProt P00811)
Sequence of UniProt P00811 (P00811 whole entry, looked up): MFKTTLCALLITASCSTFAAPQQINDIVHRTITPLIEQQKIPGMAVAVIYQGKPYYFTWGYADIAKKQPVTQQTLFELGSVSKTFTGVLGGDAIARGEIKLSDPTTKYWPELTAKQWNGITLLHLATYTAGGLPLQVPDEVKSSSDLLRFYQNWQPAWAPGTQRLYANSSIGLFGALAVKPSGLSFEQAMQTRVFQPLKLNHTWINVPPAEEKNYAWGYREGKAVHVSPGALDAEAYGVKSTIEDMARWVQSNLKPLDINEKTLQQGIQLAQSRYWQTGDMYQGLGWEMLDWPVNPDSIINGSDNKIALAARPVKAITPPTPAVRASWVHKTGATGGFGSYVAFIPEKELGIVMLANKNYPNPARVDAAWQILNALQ
Assay: qHTS Inhibitors of AmpC Beta-Lactamase (assay with detergent); note: nearly all actives have a fitted effect of over 25% in size;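 for activity change, negative = inhibition: 0% = no-compound wells and -100% = no-enzyme wells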
Conditions: AmpC hydrolysis of nitrocefin, absorbance 480 nm, 0.01% Triton; activity change, negative = inhibition: at 114 µM (top of the series)
Outline: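 20 mM phosphate pH 7.0 + 0.01% (detergent screen) or 0.0001% Triton X-100; 5.3 nM AmpC reagent; cpd preinc 15 min RT; nitrocefin (800 uM stock) to start; A480 q20 s × 4 min; Activity was normalised to no-enzyme and no-compound control wells.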
Potency is the fitted concentration of half-maximal effect; tags give direction and shape of the fitted curve.

Row | Compound | Potency | activity change, negative = inhibition
1 | COc1ccc(/C=C(/NC(=O)c2ccccc2)C(=O)N/N=C/c2ccc3c(c2)OCO3)cc1OC | inconclusive [inhibitor, partial curve, poor fit] | 
2 | Clc1ccc(-c2cc(COc3ccccc3)no2)cc1Cl | inconclusive [inhibitor, full curve] | 
3 | Nn1c(CN2CCCCC2)nc2ccccc2c1=O |  | inactive: 3.6%
4 | COCCNCC(=O)NCC12CC3CC(CC(C3)C1)C2 | inconclusive [inhibitor, partial curve] | 
5 | Cc1ccc(NC(=O)CCN2C(=O)C3CCCCC3C2=O)cc1[N+](=O)[O-] (stereo unspecified) | inconclusive [inhibitor, full curve, poor fit] | 
6 | CCOC(=O)c1ccccc1NC(=O)COc1ccccc1 | inconclusive [inhibitor, full curve, poor fit] | 
7 | CCCc1nc(-c2cc3ccc(C)cc3[nH]c2=O)no1 | inconclusive [inhibitor, single point] | 
8 | CC1CCc2sc3ncnc(N4CCN(CCO)CC4)c3c2C1 (stereo unspecified) | inconclusive [inhibitor, partial curve, poor fit] | 
9 | CCOc1ccc(C2SCC(=O)Nc3c2c(=O)[nH]n3C2CCCCCC2)cc1 (stereo unspecified) |  | inactive: 2.8%
10 | COc1ccc(/C=N/NC(=O)c2nc(-c3ccccc3)n(-c3ccccc3)n2)cc1 | inconclusive [inhibitor, full curve, poor fit] | 
11 | O=C(Nc1ccc2c(c1)OCO2)C1Cc2ccccc2CN1S(=O)(=O)c1cccs1 (stereo unspecified) | inconclusive [inhibitor, full curve, poor fit] | 
12 | Cc1ccnc2nc(C(=O)OCC(=O)NCCc3ccc(Cl)cc3)nn12 | inconclusive [inhibitor, partial curve, poor fit] | 
13 | CN1CCN(C(=S)c2ccc(N(C)C)cc2)CC1 | inconclusive [inhibitor, full curve] | 
14 | Cc1cccc(CC2SC(N3CCN(c4ccccc4)CC3)=NC2=O)c1 (stereo unspecified) | inconclusive [inhibitor, full curve, poor fit] | 
15 | COc1ccc(OC)c(S(=O)(=O)N/N=C(/C)c2ccc3c(c2)OCO3)c1 | inconclusive [inhibitor, full curve, poor fit] | 
16 | O=c1c(=O)n(-c2cccc(Cl)c2)ccn1Cc1cccc(F)c1 |  | inactive: -6.97%
17 | Nc1c(Cl)c(Cl)nc(C(=O)OCC(=O)NCc2ccccc2)c1Cl | inconclusive [inhibitor, full curve, poor fit] | 
18 | On1c(-c2ccc(Cl)cc2)nc2ccccc21 | inconclusive [inhibitor, full curve, poor fit] | 
19 | COCc1ccc(C(=O)NC2CC(C)(C)Cc3c2cnn3-c2ccc(OC)cc2)o1 (stereo unspecified) | inconclusive [inhibitor, full curve, poor fit] | 
20 | CCOc1ccc(C2Sc3ccccc3NC3=C2C(=O)OC3)cc1 (stereo unspecified) | inconclusive [inhibitor, single point] | 
21 | CCOC(=O)c1c(/N=C/C2C(=O)CCCC2=O)sc(C)c1C | inconclusive [inhibitor, partial curve] | 

Row | Compound | Potency | activity change, negative = inhibition
22 | Cc1ccc[n+](CC(=O)c2ccc(Br)cc2)c1 | inconclusive [inhibitor, full curve, poor fit] | 
23 | O=C(CCSc1nc(-c2ccco2)cc(C(F)(F)F)n1)N1CCN(c2ccccc2)CC1 | inconclusive [inhibitor, full curve, poor fit] | 
24 | CC1CCC(NC(=O)c2nn(C)c3c2CSc2ccccc2-3)CC1 (stereo unspecified) | inconclusive [inhibitor, full curve, poor fit] | 
25 | O=S(=O)(c1cccc(F)c1)N1CCC(c2nc3ccccc3s2)CC1 |  | inactive: 21%
26 | COc1ccc(C2/C(=C(/O)c3ccc(C)cc3)C(=O)C(=O)N2CCCN2CCOCC2)cc1 (stereo unspecified) | inconclusive [inhibitor, partial curve, poor fit] | 
27 | CCC1(C)Cc2ccccc2-c2nc(NCCO)n(-c3ccccc3)c(=O)c21 (stereo unspecified) | inconclusive [inhibitor, full curve, poor fit] | 
28 | COc1ccc(-c2nc(CSCC(=O)N3CCN(c4ccc(OC)cc4)CC3)c(C)o2)cc1 | inconclusive [inhibitor, single point] | 
29 | CCCn1nnc(NC(=O)c2ccco2)n1 | inconclusive [inhibitor, full curve] | 
30 | COc1ccccc1C(=O)N/C(=C/c1ccc2c(c1)OCO2)C(=O)Nc1ccc(C(=O)O)cc1 | inconclusive [inhibitor, full curve, poor fit] | 
31 | COc1ccc(N2CCN(C(=O)c3ccc(CS(=O)(=O)c4ccccc4C)o3)CC2)cc1 |  | inactive: -6.25%
32 | COc1ccc(NC(=O)C2CCCN2S(=O)(=O)c2ccc(Cl)cc2)cc1 (stereo unspecified) |  | inactive: 3.52%
33 | COc1ccc(-c2csc(NC(=O)CSc3nnnn3C)n2)cc1OC | inconclusive [inhibitor, full curve] | 
34 | COc1cc(/C=N/NC(=O)c2ccc3ccccc3c2)ccc1Oc1ccc([N+](=O)[O-])cn1 |  | inactive: -4.86%
35 | O=C(COC(=O)c1ccccc1Br)NCCN1C(=O)CSC1=O | inconclusive [inhibitor, full curve, poor fit] | 
36 | Cn1c(Cl)cnc1C1CC(=O)c2cc(Cl)ccc2O1 (stereo unspecified) |  | inactive: 9.4%
37 | COc1ccc(CCC(=O)Nc2cc3c4c(c2)CCC(=O)N4CCC3)cc1 | inconclusive [inhibitor, full curve, poor fit] | 
38 | Cc1ccc(OCC(=O)Nc2ccc(-c3nc4ncccc4o3)cc2)cc1 | inconclusive [inhibitor, full curve, poor fit] | 
39 | CCCc1c(OCCCCc2nn[nH]n2)ccc(C(C)=O)c1O | inactive | 
40 | CCN1CC=C(c2c[nH]c3ccccc23)CC1 | inconclusive [inhibitor, full curve, poor fit] | 
41 | Cc1noc(C)c1CSc1nnc(-c2ccncc2)n1-c1cccc(Cl)c1C | inconclusive [inhibitor, single point] | 

— PubChem BioAssay AID485294 (National Center for Advancing Translational Sciences (NCATS), 2010)
